Assay results published in US20220204587A1.

B1: T22d35-Fc-IgG1-v1 (CC) (Fc fusion)
chain: IPPHVQKSVNNDMIVTDNNGAVKFPQLCKFCDVRFSTCDNQKSCMSNCSITSICEKPQEVCVAVWRKNDENITLETVCHDPKLPYHDFILEDAASPKCIMKEKKKPGETFFMCSCSSDECNDNIIFSEEYNTSNPDIPPHVQKSVNNDMIVTDNNGAVKFPQLCKFCDVRFSTCDNQKSCMSNCSITSICEKPQEVCVAVWRKNDENITLETVCHDPKLPYHDFILEDAASPKCIMKEKKKPGETFFMCSCSSDECNDNIIFSEEYNTSN[human IgG1 Fc and a few adjoining residues cut from this listing]
B2: T22d35-Fc-IgG1-v2 (SCC) (Fc fusion)
chain: IPPHVQKSVNNDMIVTDNNGAVKFPQLCKFCDVRFSTCDNQKSCMSNCSITSICEKPQEVCVAVWRKNDENITLETVCHDPKLPYHDFILEDAASPKCIMKEKKKPGETFFMCSCSSDECNDNIIFSEEYNTSNPDIPPHVQKSVNNDMIVTDNNGAVKFPQLCKFCDVRFSTCDNQKSCMSNCSITSICEKPQEVCVAVWRKNDENITLETVCHDPKLPYHDFILEDAASPKCIMKEKKKPGETFFMCSCSSDECNDNIIFSEEYNTSNPDV[human IgG1 Fc with changes cut from this listing]
B3: T22d35-Fc-IgG1-v3 (GSL-CC) (Fc fusion)
chain: IPPHVQKSVNNDMIVTDNNGAVKFPQLCKFCDVRFSTCDNQKSCMSNCSITSICEKPQEVCVAVWRKNDENITLETVCHDPKLPYHDFILEDAASPKCIMKEKKKPGETFFMCSCSSDECNDNIIFSEEYNTSNPDIPPHVQKSVNNDMIVTDNNGAVKFPQLCKFCDVRFSTCDNQKSCMSNCSITSICEKPQEVCVAVWRKNDENITLETVCHDPKLPYHDFILEDAASPKCIMKEKKKPGETFFMCSCSSDECNDNIIFSEEYNTSNPDGGGSGGGSG[human IgG1 Fc and a few adjoining residues cut from this listing]

What was measured:
Test in all cases: cell-based or functional assay
TGF-β2 = target: T1, TGF-β2 (UniProt P61812)
T1 sequence (looked up): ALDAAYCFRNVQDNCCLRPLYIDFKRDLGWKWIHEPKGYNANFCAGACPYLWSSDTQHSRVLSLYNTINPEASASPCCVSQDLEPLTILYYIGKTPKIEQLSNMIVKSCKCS

TGF-β3 = TGF-β3 (UniProt P10600)
Chain of UniProt P10600 (P10600 301-412 limits assumed): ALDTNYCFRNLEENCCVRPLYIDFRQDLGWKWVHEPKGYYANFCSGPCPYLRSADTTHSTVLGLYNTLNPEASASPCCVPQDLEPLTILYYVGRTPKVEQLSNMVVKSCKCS

TGF-β1 = TGF-β1 (UniProt P01137)
Chain of UniProt P01137 (P01137 279-390 limits assumed): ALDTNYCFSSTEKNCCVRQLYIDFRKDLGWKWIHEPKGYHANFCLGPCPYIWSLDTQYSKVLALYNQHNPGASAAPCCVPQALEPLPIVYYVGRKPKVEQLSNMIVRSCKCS

| Binder | IC50, neutralization of TGF-β-induced IL-11 release by A549 cells (FIG. 9) (TGF-β2) [pM] | IC50, neutralization of TGF-β-induced IL-11 release by A549 cells (FIG. 9) (TGF-β3) [pM] | IC50 (nM), neutralization of TGF-β1-induced IL-11 release by A549 cells (TGF-β1) [nM] | IC50, neutralization of TGF-β-induced IL-11 release by A549 cells (FIG. 9) (TGF-β1) [pM] |
| --- | --- | --- | --- | --- |
| B1 | 17300 | 3.25 | 0.00234 | 3.33 |
| B2 |  |  | 0.00213 |  |
| B3 |  |  | 0.00248 |  |
